Laboratory results: the supplement of paper PMC3334620
Whole data set: some 33,000 sequences, median “E-score (-0.5 to 0.5)” near -0.054, cut for the highest 2% near 0.39. The list shows a part of the results.

What follows are sequences tested against Ylr278c (UniProt Q05854) (assay: PBM E-score (8-mer binding enrichment) (E-score (-0.5 to 0.5)); higher = stronger / more preferred TF binding; most listed sequences are background and not binding sites). Conditions: protein concentration: 200 nM; construct: GST-DNA-binding domain.
Method in brief: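 Universal all-10-mer Agilent arrays, fresh or stripped once, were converted to double-stranded form by primer extension. GST-tagged yeast transcription factors from PURExpress in vitro transcription/translation, full-length or DNA-binding domain only, were applied at about 100-200 nM and detected with fluorescent anti-GST. After masliner normalisation, the Universal PBM Analysis Suite scored each ungapped eight-base word together with its reverse complement by E-score.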

Sequence | PBM E-score
CCTTCACC | -0.0695
AGATTGGG | 0.0161
AAAACGCT | -0.156
AGGAATTC | -0.0584
CAACTATA | -0.105
ACCGTCCA | 0.0873
ATGCAGCA | -0.118
CAACGGTG | 0.0327
CACCGCGA | 0.12
ACGTCAAT | -0.238
AAAATTTC | -0.0813
TGGGCTAA | -0.0598
AACGGTCG | 0.126
CCTCGGCG | 0.359
AGGAGCCC | 0.12
AAGTCGAC | -0.00141
AAAACACA | -0.0787
AAAAAAAG | -0.012
CCTCAGTC | -0.139
GATGAAAA | 0.0362
CTTCAACA | -0.253
AAATGCTC | 0.0464
CTTCTTAA | -0.118
AGCAATTC | 0.0217
AGGGCGCG | -0.0333

Sequence | PBM E-score
AAACTCAG | -0.181
CGCCCGAA | 0.111
CCACCATC | -0.065
ATTCCATA | 0.0215
TCCTACAA | -0.065
AGTCGCAG | -0.114
ACCAGGCT | -0.379
GGTTGGAA | 0.134
TGCCCACA | -0.268
GCCCCGTA | 0.0577
GGCCACTA | -0.0397
CAACCCAA | -0.193
ATGAGTAG | -0.00731
CGAGACAG | -0.0905
ACGTTGTC | -0.0899
GAAAGTTA | 0.0235
GCCCTAGA | -0.212
CATGAGCG | -0.00958
GACCTATC | -0.0879
AATAAACT | 0.0605
AAGCACGC | -0.0908
GTCCTGCA | -0.274
ACATTTCG | -0.0113
ATGGTCCG | 0.362
CCCCCCGA | 0.083

Sequence | PBM E-score
CAAGAAAC | 0.119
CGGTGTTA | 0.331
ATGCGGGC | 0.0941
ACATCAGT | -0.0951
ATGCACGC | -0.0143
CGTACAAC | -0.0582
CGGATAAG | 0.262
CGTGGCCC | -0.0746
AATCTCGA | -0.102
GGGGTGCA | 0.2
CGACTGCG | 0.12
ACCATATA | -0.15
GTCATGAC | 0.0612
ACCAAATG | -0.0915
CGAAACAA | 0.139
ACCCTAGT | -0.302
AAGAGCGA | -0.0751
GAAACTCA | -0.0472
GCAATCCA | -0.0617
GGGCCCAC | 0.0989
ACCGCTCA | -0.075
ATTTCGAC | -0.0116
AATTTGAT | -0.0443
CGTCGCTC | 0.0828
CGGGAGTA | 0.343

Sequence | PBM E-score
GCAACAGC | -0.0616
ACTCGGAA | 0.398
TTCAGCAA | -0.242
ACAACCGC | 0.147
TATCGGCA | 0.264
CCCCAATC | -0.184
TCACCGGA | 0.394
GGAGAAAC | 0.309
CGCGGCGC | 0.308
ACATAGAT | -0.0405
CAAGAGAC | -0.231
ATCGCTGA | -0.0505
CCCCACAC | -0.0908
CCCCTTTC | -0.0376
ATGTGATG | -0.192
ATCAAAGC | 0.113
TAGCGAAA | -0.136
TAGCTACA | -0.164
ACAGCTGT | -0.0829
TCGGCCGA | 0.352
TCCAGACA | -0.0585
GACTTGTA | -0.0737
AGCCCAGG | -0.282
AACTGAGT | 0.00804
CCTCCTCA | -0.231

Sequence | PBM E-score
AGACACGC | -0.0238
AATGGTAT | -0.0745
GAGACGCC | 0.18
GTAACTCA | -0.148
CAAACGGA | 0.317
ACACTGCG | 0.00994
CTACCTCC | 0.185
AAGGAGGG | -0.184
AAAGTGCA | 0.0083
ACCCATAC | -0.232
ACTGCCCT | -0.112
AAAAAGGC | -0.015
GCCGGAAA | 0.428
TAGTCACA | -0.222
CTAAGGAG | -0.217
CCCGTATC | 0.0595
GAGCCTCA | -0.171
GGTTGCAC | -0.114
CATCCTAC | -0.17
AGCCACTG | -0.151
GAATCTAA | 0.0521
AGCTGGCC | 0.133
GATAGGGC | -0.139
GCGATTTA | 0.0394
AAAGGAAT | -0.0742

Sequence | PBM E-score
CCCCCGAA | 0.184
CAGTAGAC | -0.0573
GAATTAAC | -0.0862
GGTGGTTA | 0.0673
CTGGTTGC | 0.123
AACACAGA | -0.141
CACGGCGC | 0.191
ACGGCTAT | -0.0187
AAAATTGG | -0.00451
GGGCTCGA | -0.141
CCGTTGTC | 0.233
CACGCGGC | 0.151
CAATACTC | -0.0672
ATGAGCTC | 0.0429
CGATGGGC | 0.0294
CTCTGTTC | -0.0823
CTAGAAAA | -0.094
GGTAAAAA | 0.0218
GCTAAAGA | -0.017
TCTGATAA | -0.171
TATCCAAA | -0.206
AAGGACAC | -0.039
ACTGTCGC | 0.0643
GGCTTCGA | -0.0263
CACAAAGA | -0.197

Sequence | PBM E-score
ACGTAGAT | -0.145
AGGACCAC | -0.0997
GATTCCAC | 0.141
GTCCTTTA | -0.128
GGCGGGAC | 0.244
ACCTCGTC | 0.068
CGCGCCAG | 0.0693
GTGCCTCA | -0.135
GGTGGAAA | 0.0537
GGATAATA | 0.164
AAAGATTC | -0.0955
AAGGTGAC | -0.328
GTCGCAAC | -0.0209
CTAACATA | -0.0649
GGCACGGA | 0.279
CCTCTCTA | -0.211
CTCTTGTA | -0.125
GCGCGTGA | 0.0222
AAAACCAC | -0.0804
GGGTACAC | -0.021
CTCCATAC | -0.025
ACACTAGG | -0.147
